Source: PubChem BioAssay AID488969 (Vanderbilt High Throughput Screening Facility, 2010)
Whole data set: some 110,000 compounds, median “z-score” near -0.1, cut for the highest 2% near 2. Some of the results follow. Calls of active or inactive are those of the source.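 How the source made its calls: active means z-score in the third read window above 3 or below -3; inactive means the rest.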

target: Metabotropic glutamate receptor 8 (Rattus norvegicus) (UniProt P70579); test: rat mGluR8 modulators via GIRK flux, primary screen, cell-based, thallium flux, HTS (AID 488969); settings: HEK293 rat mGluR8, GIRK (G protein-gated inwardly rectifying potassium channel) thallium flux, FluoZin2; at 10 µM; stronger effect = higher value; submaximal glutamate (EC20) added with thallium
UniProt P70579, sequence (P70579 whole entry, looked up): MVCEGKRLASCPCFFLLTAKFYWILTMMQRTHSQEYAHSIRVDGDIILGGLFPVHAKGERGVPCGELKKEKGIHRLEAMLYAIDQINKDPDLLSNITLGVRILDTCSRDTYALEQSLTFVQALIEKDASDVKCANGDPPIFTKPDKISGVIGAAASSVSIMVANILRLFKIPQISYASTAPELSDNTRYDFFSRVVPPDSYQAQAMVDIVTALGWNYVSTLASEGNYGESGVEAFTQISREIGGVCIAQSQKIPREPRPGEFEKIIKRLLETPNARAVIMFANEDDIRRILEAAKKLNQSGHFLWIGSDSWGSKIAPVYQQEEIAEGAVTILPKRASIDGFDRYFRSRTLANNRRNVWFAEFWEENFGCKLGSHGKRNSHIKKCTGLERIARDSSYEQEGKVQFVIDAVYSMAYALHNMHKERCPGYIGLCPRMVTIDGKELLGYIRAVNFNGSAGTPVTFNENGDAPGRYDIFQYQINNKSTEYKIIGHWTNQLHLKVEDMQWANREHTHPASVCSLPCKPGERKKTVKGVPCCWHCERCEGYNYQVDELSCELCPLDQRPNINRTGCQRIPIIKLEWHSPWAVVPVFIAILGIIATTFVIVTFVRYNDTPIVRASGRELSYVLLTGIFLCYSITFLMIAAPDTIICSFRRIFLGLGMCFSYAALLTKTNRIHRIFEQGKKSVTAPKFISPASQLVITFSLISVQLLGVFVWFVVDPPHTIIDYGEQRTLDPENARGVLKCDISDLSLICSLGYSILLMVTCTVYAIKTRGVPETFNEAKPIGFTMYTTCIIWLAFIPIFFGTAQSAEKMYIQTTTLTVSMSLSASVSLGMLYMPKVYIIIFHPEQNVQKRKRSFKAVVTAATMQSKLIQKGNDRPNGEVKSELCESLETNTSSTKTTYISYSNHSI

| SMILES | z-score |
| --- | --- |
| CCCN1C(=S)SC(C)(C)C1/[N+]([O-])=C/c1cccnc1 (configuration not stated) | -0.17 |
| Cn1c(=O)c2c(nc3sccn32)n(C)c1=O | active: 3.7 |
| Cc1nnc(SC2CC(=O)N(c3ccccc3)C2=O)s1 (configuration not stated) | -0.0552 |
| Cc1cccc(N2CCN(C(=O)CCCn3c(=S)[nH]c4cc5c(cc4c3=O)OCO5)CC2)c1C | -0.839 |
| CC(=O)c1ccc(N2CCN(C(=O)c3ccc(Br)cc3)CC2)c(F)c1 | 0.00713 |
| Cc1cc(C)c2[nH]c(O)c(N=NC(=O)c3cc4c(s3)CCCC4)c2c1 | -0.395 |
| COc1ccc2cc3cc(C(=O)NCc4ccco4)oc3nc2c1 | -0.0316 |
| Cc1cccc(C)c1OCCn1nc(C(=O)O)c2ccccc2c1=O | 0.285 |
| COc1cc(C(=O)NC(=S)NNC(=O)c2cnccn2)cc(OC)c1OC | -0.0805 |
| COc1ccccc1Nc1nc(-c2sc(NC(=O)c3ccccc3)nc2C)cs1 | -0.232 |
| CC(CC(C)C(=O)Nc1ccccc1C(C)(C)C)C(=O)O (configuration not stated) | -0.157 |
| CCCCNC(=O)NNC(=O)c1ccoc1C | 0.261 |
| CO/N=C/NC(=O)N1OC[C@@H]2COc3ccc4ccccc4c3[C@@H]21 | 0.0191 |
| COc1cccc(C2CC(c3ccc(Cl)cc3)n3nc(N)nc3N2)c1 (configuration not stated) | 0.802 |
| O=C(c1cccnc1)N1CCc2ccccc21 | -0.771 |
| OC1CNCc2cc3c(cc21)OCCO3 (configuration not stated) | 0.593 |
| O=C1c2ccccc2C(=O)N1CCCCSc1nnc2c(Cl)cc(Cl)cn12 | -0.0762 |
| Cc1cc(C)c2c(=O)[nH]c(SCC(=O)N3CCCCC3)nc2n1 | -0.557 |
| Nc1nnc(-c2ccc(Cl)cc2)s1 | 0.262 |
| COc1cccc(C(=O)Nc2nnc(C(C)C)s2)c1 | -0.451 |
| CCOCCn1c(C(C)C)nc2ccccc21 | 0.737 |
| C=CCN1CCN(C(c2ccc(Cl)cc2)c2nnnn2CCc2ccc(OC)c(OC)c2)CC1 (configuration not stated) | 2.29 |
| Cc1ccc2c(c1)C(=O)C(=O)N2CC(=O)OC(C)C | 0.596 |
| CCOc1ccc(NC(=O)CSc2n[nH]c(=O)n2-c2ccccc2)cc1 | 0.384 |

| SMILES | z-score |
| --- | --- |
| Cn1c(=O)cc(SCC(=O)NCCC2=CCCCC2)c2ccccc21 | -0.00869 |
| O=C1COc2ccc(C(=O)COC(=O)CCc3ccc(S(=O)(=O)N4CCOCC4)cc3)cc2N1 | 1.12 |
| O=C(C1Cc2ccccc2CN1S(=O)(=O)c1cccs1)N1CCCCC1 (configuration not stated) | 0.27 |
| c1coc(-c2nnc(-c3cccs3)o2)c1 | -0.402 |
| CN1C(=O)N(CN2CCCCC2)C2C1N(C)C(=O)N2CN1CCCCC1 (configuration not stated) | 0.636 |
| Fc1ccc(CSc2nncn2NC/C=C/c2ccccc2)cc1 | -0.402 |
| CCOC(=O)c1cnn(-c2nc(-c3ccccc3F)cs2)c1C(F)(F)F | 0.107 |
| Cc1cc(=O)[nH]c2c(C)c(Cl)ccc12 | -0.186 |
| COC(=O)c1c(NC(=O)C2COc3ccccc3O2)sc2c1CCN(C(C)=O)C2 (configuration not stated) | -0.254 |
| CC(=O)NCc1cc(-c2nn(C)c(=O)c3ccccc23)ccc1C | 0.0782 |
| CC1C=CCC2C(=O)N(c3cccc(C(=O)N4CCCCCC4)c3)C(=O)C12 (configuration not stated) | 0.53 |
| COCCNC(=O)C(c1ccc(F)cc1)N(CC1CCCO1)C(=O)CCC(=O)Nc1ccccn1 (configuration not stated) | -0.385 |
| Cn1ncc(Cl)c1C(=O)NC(=S)Nc1sc2c(c1C#N)CCCCC2 | 0.112 |
| CCOC(=O)c1cnn(-c2ccccc2)c1N | -0.137 |
| Cc1c(NC(=O)/C=C/C(=O)O)cccc1[N+](=O)[O-] | 0.28 |
| Cc1nn(Cc2cccc(C(=O)NCC(C)C)c2)c(C)c1Br | -1.42 |
| C=CCNC(=O)c1ccc(Sc2ccccc2)c([N+](=O)[O-])c1 | -0.412 |
| O=C(Nc1c2c(nc3ccccc13)CCCC2)c1ccccc1Cl | -0.106 |
| Cc1ccc(C)c(NC(=O)c2oc(=O)c3ccccc3c2-c2ccccc2)c1 | -0.466 |
| Cc1nnc(NC(=O)c2sc3nc(-c4cccs4)cc(C(F)(F)F)c3c2N)s1 | -0.26 |
| Cc1cccc(C(=O)Oc2csc(=S)n2C(=O)c2cccc(C)c2)c1 | 0.282 |
| COc1ccc(Oc2nc(SC)nc3ccccc23)cc1 | -0.0187 |
| CC(C)NC(=O)/C(=N\O)c1ccccc1 | 0.0549 |
| O=C(Cc1ccccc1)N[C@@H](Cc1ccccc1)c1nc2ccccc2[nH]1 | -0.0491 |

| SMILES | z-score |
| --- | --- |
| COc1cccc(NC(=O)COC(=O)c2ccccc2F)c1 | 1.14 |
| CC(=O)c1ccc2c(c1)c1ccccc1n2CC(C)C | 0.108 |
| CCOC(=O)COc1ccc(C)cc1-c1ccno1 | -0.341 |
| Cc1cccc(C)c1OCC(=O)N=Nc1c(O)[nH]c2ccc(Br)cc12 | -0.208 |
| CCn1cc(C(=O)N2CC=C(c3ccccc3)CC2)c(=O)c2ccc(C)nc21 | -0.132 |
| Cc1ccccc1C(OCCN(C(C)C)C(C)C)c1ccccc1 (configuration not stated) | 1.06 |
| CC(C)OC(=O)c1cc2ccccc2[nH]1 | -0.0749 |
| CCn1c(CSCc2ccc(F)cc2)nnc1SCC(=O)NCc1ccccc1 | 0.172 |
| COc1ccc(C(=O)Nc2ccccc2C(=O)N/N=C/c2cccc3ccccc23)cc1 | -0.0109 |
| Cc1ccc(C)c(NC2=NCC(=O)N2c2ccc3c(c2)OCCO3)c1 | 0.186 |
| CCOC(=O)c1c(/N=C/c2ccc(C)cc2O)sc2c1CCC2 | 0.443 |
| O=c1[nH]c(=O)n(C2CCCCCC2)c(O)c1C=NCc1ccc(F)cc1 | 0.78 |
| COc1ccc(/C=C/c2nc(-c3ccccc3O)n(-c3ccccc3)n2)cc1 | -0.153 |
| CC(=O)Nc1ccc(S(=O)(=O)NCc2ccc(C(=O)NCCN3CCCCCC3)cc2)cc1 | 0.0456 |
| Cc1ccc(C(=O)NCCn2cc(SCC(=O)Nc3cc(C)on3)c3ccccc32)cc1 | -0.282 |
| O=C(OCCCN1CCCCC1)c1ccc(O)cc1 | 0.0289 |
| O=C(Nc1nnc(CCOCCOCCc2nnc(NC(=O)c3ccco3)s2)s1)c1ccco1 | -0.165 |
| O=C(COC(=O)c1ccc[nH]c1=O)NC1CCCC1 | -1.01 |
| Cc1cc(C(=O)CN2C(=O)NC3(CCCCC3C)C2=O)c(C)n1Cc1cccs1 (configuration not stated) | -0.337 |
| COc1ccc2c(-c3cc4ccc(OCc5ccc(F)cc5)cc4oc3=O)cc(=O)oc2c1 | 0.0169 |
| CC(C)c1ccc(/C=C/C(=O)Nc2nc3ccc([N+](=O)[O-])cc3s2)cc1 | -0.129 |
| CCOC(=O)N1CCC(N2C(=O)c3ccccc3C2Nc2ccc(C)cc2)CC1 (configuration not stated) | -0.488 |
| CNc1cccc2c1C(=O)c1ccccc1C2=O | -0.102 |
| O=C(CCc1ccc(S(=O)(=O)NC2CCCCC2)cc1)NCc1ccc(Cl)cc1 | -0.344 |
